No constants are given. Whether binding was seen depends on the method and setting. In cells and extracts the contact can be indirect. Some results given as binding are weak or reduced against the parent protein; the word gives no strength. Tags and fused reporters may be left off the sequences shown.

Amino acid sequences for entries named in this document (tags omitted). A change or cut given only in a name is not applied to a line headed by its entry. Chains listed by the source or under a name are the forms on record and can include a tag or linker. Residues count along the entry.
FLAG-tagged wild type GRP78 [F-78 (WT)] (P11021, residues 19-654): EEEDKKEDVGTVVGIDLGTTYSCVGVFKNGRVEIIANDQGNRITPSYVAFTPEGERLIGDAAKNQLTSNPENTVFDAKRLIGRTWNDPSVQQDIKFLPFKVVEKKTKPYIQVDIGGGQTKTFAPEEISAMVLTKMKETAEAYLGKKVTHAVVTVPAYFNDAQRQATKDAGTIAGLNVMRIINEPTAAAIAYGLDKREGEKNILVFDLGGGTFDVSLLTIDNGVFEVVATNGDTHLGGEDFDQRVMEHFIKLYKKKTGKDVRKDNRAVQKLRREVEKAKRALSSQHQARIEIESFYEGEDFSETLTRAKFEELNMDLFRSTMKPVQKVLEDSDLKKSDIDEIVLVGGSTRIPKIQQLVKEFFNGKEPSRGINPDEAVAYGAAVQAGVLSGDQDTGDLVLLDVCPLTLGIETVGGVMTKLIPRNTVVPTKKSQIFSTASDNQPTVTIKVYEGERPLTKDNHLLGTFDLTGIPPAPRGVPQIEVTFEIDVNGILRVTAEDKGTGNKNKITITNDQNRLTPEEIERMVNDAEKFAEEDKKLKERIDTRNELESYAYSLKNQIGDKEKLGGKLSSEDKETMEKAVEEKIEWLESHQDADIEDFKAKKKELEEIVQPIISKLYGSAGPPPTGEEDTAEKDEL
FLAG-GRP78 mutant with the nuclear localization signal mutated [F78 (NLS^Mut)] (P11021, form named): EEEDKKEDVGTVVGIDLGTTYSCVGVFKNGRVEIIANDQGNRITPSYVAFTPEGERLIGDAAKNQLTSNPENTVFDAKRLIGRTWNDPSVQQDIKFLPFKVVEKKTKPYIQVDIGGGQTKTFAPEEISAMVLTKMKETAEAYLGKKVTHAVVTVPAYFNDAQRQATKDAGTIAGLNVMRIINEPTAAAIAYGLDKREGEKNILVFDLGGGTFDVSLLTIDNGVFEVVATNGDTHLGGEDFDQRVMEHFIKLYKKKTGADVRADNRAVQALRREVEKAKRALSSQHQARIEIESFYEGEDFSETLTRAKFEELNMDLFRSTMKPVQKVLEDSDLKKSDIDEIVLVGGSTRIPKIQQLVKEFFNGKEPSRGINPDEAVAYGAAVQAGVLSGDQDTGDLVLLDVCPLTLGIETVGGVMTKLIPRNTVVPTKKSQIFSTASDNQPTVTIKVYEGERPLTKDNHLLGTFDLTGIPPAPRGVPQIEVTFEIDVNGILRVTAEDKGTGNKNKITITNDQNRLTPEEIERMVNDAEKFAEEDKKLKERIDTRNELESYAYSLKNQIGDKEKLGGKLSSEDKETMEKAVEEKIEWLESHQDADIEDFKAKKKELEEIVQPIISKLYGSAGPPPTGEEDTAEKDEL
FLAG-GRP78 mutant T453D (substrate binding deficient) (P11021, form named): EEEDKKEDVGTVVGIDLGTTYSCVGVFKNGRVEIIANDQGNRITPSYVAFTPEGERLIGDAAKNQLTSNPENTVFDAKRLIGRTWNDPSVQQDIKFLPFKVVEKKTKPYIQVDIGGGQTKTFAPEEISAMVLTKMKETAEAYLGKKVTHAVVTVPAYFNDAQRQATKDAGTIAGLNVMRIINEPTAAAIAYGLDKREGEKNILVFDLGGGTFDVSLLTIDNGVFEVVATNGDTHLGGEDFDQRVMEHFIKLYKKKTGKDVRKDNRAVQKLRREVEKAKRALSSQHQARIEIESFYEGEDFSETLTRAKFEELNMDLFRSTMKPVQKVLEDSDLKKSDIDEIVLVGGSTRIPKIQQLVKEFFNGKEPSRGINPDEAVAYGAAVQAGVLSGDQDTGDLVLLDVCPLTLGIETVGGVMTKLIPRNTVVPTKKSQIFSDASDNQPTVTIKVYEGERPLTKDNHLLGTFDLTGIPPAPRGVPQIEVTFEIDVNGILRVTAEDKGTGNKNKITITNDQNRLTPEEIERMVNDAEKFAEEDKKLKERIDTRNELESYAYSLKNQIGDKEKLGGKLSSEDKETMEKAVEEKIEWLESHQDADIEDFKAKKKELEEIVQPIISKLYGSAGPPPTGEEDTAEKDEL
FLAG-GRP78 mutant G227D (ATP binding deficient) (P11021, form named): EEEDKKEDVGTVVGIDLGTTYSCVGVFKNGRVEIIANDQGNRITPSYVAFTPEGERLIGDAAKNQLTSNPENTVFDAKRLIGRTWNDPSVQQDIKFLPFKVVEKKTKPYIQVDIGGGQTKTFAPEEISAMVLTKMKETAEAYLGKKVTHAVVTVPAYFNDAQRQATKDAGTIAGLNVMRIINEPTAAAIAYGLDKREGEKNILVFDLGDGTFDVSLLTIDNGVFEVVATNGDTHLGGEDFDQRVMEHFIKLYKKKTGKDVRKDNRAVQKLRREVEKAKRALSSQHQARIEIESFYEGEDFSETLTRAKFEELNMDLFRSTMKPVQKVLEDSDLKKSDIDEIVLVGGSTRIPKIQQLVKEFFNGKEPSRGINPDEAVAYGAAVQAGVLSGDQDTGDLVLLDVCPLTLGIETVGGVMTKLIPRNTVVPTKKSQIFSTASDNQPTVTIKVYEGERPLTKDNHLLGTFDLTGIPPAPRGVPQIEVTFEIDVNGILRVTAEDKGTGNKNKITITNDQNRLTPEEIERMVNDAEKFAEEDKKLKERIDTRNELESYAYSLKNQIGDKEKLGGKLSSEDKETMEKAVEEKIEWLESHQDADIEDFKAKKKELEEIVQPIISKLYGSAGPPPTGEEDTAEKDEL
FLAG-GRP78 mutant R197H (cochaperone binding deficient) (P11021, form named): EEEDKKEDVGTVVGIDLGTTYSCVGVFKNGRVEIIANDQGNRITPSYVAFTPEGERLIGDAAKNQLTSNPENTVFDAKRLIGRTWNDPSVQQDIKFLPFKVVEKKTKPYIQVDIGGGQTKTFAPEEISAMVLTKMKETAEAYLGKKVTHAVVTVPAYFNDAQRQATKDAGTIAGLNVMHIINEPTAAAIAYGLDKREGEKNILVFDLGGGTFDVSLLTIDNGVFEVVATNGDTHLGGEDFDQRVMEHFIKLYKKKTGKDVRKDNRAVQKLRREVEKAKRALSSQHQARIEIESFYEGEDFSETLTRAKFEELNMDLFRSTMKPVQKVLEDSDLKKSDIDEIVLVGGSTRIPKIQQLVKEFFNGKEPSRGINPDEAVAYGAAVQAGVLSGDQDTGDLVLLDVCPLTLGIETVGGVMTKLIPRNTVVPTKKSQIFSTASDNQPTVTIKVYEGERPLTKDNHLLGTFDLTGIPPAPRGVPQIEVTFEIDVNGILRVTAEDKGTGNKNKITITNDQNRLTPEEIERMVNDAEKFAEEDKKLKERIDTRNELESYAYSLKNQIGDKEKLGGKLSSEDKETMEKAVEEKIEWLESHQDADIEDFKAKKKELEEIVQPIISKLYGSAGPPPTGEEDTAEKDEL

Five substances from PMC11997380 can be followed below.

The test has as its target T1, ID2-FLAG-Myc (UniProt Q02363).
T1 sequence: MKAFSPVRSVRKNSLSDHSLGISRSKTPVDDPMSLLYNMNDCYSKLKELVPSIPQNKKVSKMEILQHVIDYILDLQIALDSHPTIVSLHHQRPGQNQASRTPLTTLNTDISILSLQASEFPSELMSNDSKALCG
As to the kind of experiment: co-IP; HEK293AD cells cotransfected with ID2-FLAG-Myc and F-78 constructs; lysed by sonication in 20 mM Tris-HCl pH 7.5, 150 mM NaCl, 2 mM EDTA, 0.1% Triton X-100; precipitated with anti-Myc (9E10) or IgG and protein A beads; blot with anti-FLAG (M2).
With “FLAG-tagged wild type GRP78 [F-78 (WT)] (from UniProt P11021 19-654)”, the binding entry is “binds”. Then “FLAG-GRP78 mutant with the nuclear localization signal mutated [F78 (NLS^Mut)] (from UniProt P11021 19-654)”, with “binds”. The value for “FLAG-GRP78 mutant T453D (substrate binding deficient) (from UniProt P11021 19-654)” was “no binding”; that for “FLAG-GRP78 mutant G227D (ATP binding deficient) (from UniProt P11021 19-654)” was “no binding”; that for “FLAG-GRP78 mutant R197H (cochaperone binding deficient) (from UniProt P11021 19-654)” was “binds”.
